Measured values taken from paper PMC4336329 (PLoS ONE, 2015).
Out of some 310,000 compounds screened, about 14,000 (4.5%) showed an effect of 50% or more. Effects have a minus sign here. This is one part of the list.

target: human ether-à-go-go-related gene (hERG) potassium channel (human, UniProt Q12809); test: primary screen, population patch clamp on CHO cells stably expressing hERG
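Also: peak tail current of the secondary pulse compared with the same well before compound.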

human ether-à-go-go-related gene (hERG) potassium channel, sequence (Q12809 whole entry, looked up): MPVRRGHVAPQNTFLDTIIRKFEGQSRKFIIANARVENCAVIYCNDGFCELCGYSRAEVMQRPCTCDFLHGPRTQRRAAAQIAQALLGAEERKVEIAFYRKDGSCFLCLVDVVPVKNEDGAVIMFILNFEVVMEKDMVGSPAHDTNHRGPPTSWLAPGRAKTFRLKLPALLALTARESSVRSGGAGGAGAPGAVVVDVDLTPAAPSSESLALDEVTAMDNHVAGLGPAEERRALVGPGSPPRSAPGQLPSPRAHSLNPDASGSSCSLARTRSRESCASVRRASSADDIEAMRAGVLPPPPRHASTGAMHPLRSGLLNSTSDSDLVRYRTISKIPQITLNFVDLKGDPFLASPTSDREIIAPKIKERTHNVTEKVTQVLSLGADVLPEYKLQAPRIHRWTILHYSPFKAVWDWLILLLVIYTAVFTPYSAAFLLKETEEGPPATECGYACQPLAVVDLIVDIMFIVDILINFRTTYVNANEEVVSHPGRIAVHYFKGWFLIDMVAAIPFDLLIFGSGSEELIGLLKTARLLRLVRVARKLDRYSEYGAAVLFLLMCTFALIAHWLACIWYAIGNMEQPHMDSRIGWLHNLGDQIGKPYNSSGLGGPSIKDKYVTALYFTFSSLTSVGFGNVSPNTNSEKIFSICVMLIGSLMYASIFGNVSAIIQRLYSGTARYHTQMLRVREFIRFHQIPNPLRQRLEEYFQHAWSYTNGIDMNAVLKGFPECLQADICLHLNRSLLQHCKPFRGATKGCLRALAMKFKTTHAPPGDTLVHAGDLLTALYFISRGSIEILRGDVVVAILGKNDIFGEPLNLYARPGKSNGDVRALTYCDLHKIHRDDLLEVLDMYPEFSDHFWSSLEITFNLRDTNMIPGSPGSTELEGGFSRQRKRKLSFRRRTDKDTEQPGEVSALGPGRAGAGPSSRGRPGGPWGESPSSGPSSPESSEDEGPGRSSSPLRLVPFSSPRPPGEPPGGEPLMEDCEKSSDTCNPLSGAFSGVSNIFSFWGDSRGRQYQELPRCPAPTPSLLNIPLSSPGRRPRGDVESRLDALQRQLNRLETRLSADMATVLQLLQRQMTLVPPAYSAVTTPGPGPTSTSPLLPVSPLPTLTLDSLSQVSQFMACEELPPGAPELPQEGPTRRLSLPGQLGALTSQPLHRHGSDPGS

Row | Compound | hERG current change (%, negative = inhibition) at 10uM [%]
1 | COc1cc(C(=O)Nc2ccc(S(=O)(=O)NC(C)(C)C)cc2)cc(OC)c1OC | 1.39
2 | CC(=O)N1N=C(c2ccccc2)OC1c1ccc([N+](=O)[O-])s1 (stereo not shown) | -1.33
3 | COc1ccc(S(=O)(=O)Nc2cc([N+](=O)[O-])ccc2OC)cc1 | -20
4 | Cc1nnc(NC(=O)CSc2nnc(CNC(=O)C34CC5CC(CC(C5)C3)C4)n2C2CCCCC2)s1 | 2.98
5 | CCOc1cccc(CN2CCN(c3cccc(C(F)(F)F)c3)CC2)c1O | -46.6
6 | CN(Cc1ccncc1)C1CC(=O)N(c2ccc(F)cc2)C1=O (stereo not shown) | 7.73
7 | COc1ccccc1N1C(=O)NC(=O)/C(=C/c2ccc3c(c2)Cc2ccccc2-3)C1=O | -13
8 | O=C(NC1CC1)c1ccc2c(c1)ncn2C1CCCC1 | 1.19
9 | COc1ccc(C(N)CCc2ccc(C)o2)cc1.Cl (stereo not shown) | -11
10 | O=C(Cc1cccs1)Nc1cccc(-c2nc3ccccc3[nH]2)c1 | -28.7
11 | CS(=O)(=O)N(CC(=O)N1CCCC1)c1cc(Cl)c(Cl)cc1Cl | -4.34
12 | Cc1ccc(-n2c(O)c(/C=N/N3CCOCC3)c(=O)[nH]c2=S)cc1 | 3.26
13 | COc1ccc(Cc2nnc(NC(=O)C3CC(=O)N(CCc4ccc(F)cc4)C3)s2)cc1OC (stereo not shown) | 20.1
14 | Cc1ccccc1Cn1ccc(NC(=O)c2cnn3c2NC(c2ccccc2)CC3C(F)(F)F)n1 (stereo not shown) | -14.6
15 | Cc1ccc(NC(=O)c2ccc(OC(=O)c3cc4ccccc4o3)cc2)cc1 | 8.66
16 | O=S(=O)(c1ccc(-c2ccccc2)cc1)N1CCCCC1 | 14.1
17 | Cc1cc(N2CCN(c3nc4ccccc4s3)CC2)n2ncnc2n1 | -77.6
18 | CCCc1cc(=O)[nH]c(SCC(=O)Nc2ccc(OC(F)F)cc2)n1 | 2.67
19 | COc1ccc(S(=O)(=O)N2CCC(C(=O)Nc3ccc(F)cc3)CC2)c2cccnc12 | -12.5
20 | Cc1ccccc1CN(c1ccc(C(=O)N2CCc3ccccc3C2)cc1)S(C)(=O)=O | -20.6
21 | CCOC(=O)[C@H]1[C@H]2COc3ccc(OC)cc3[C@@H]2N2C(=O)c3cc(OC)ccc3NC(=O)[C@@]12C | -21.1
22 | CN(C(=O)COc1ccc([N+](=O)[O-])cc1)C1CCS(=O)(=O)C1 (stereo not shown) | 1.6

Row | Compound | hERG current change (%, negative = inhibition) at 10uM [%]
23 | COCCCn1c(=S)[nH]c(C)c(C)c1=O | 17.2
24 | Cn1c(SCC(=O)Nc2ccc(N3CCOCC3)cc2)nnc1-c1ccccc1F | 1.75
25 | O=C(N/N=C/c1cccnc1)/C(=C\c1cccs1)NC(=O)c1ccccc1 | -10.9
26 | CC(C)c1ccc(C2NC(=O)c3ccccc3O2)cc1 (stereo not shown) | 20.7
27 | O=C(NN=C1CCCC1)c1ccccc1[N+](=O)[O-] | 18.6
28 | N#Cc1ccsc1NC(=O)CCN1CCN(C(c2ccccc2)c2ccccc2)CC1 | 3.65
29 | Cc1ccc2cc(C#N)c(NCCNC(=S)NCCCN(C)C)nc2c1C | -0.554
30 | Cc1cccc(C)c1OCc1n[nH]c(=S)n1-c1ccccc1 | 18.2
31 | COc1ccc(-n2c(SCC(=O)N3CCC(C(=O)O)CC3)nc3ccccc3c2=O)cc1OC | 19.5
32 | COc1cccc(Oc2ccc(N/C=C/C(=O)C(C)(C)C)cc2)c1 | -1.27
33 | O=C(CN1CCCCC1)NCCNC(=O)CN1CCCCC1 | 7.24
34 | CCc1ccccc1NC(=S)N(Cc1ccco1)C(C)c1cccs1 (stereo not shown) | 7.73
35 | O=C(NNc1ccc(F)cc1F)C1CCC1 | -15
36 | O=C(NNC1=NS(=O)(=O)c2ccccc21)c1ccccc1 | -12.1
37 | CCCc1nn(C)c(C(=O)Nc2cccc(CC)c2)c1Cl | -2.43
38 | CCCCn1c(SCC(=O)Nc2oc(C)c3c(C)n[nH]c(=O)c23)nc2cc(S(N)(=O)=O)ccc21 | -10.2
39 | Cc1cc(Nc2ccc(F)c(Cl)c2)n2ncnc2n1 | 2.99
40 | COc1ccccc1CNC(=O)c1cnc2sccn2c1=O | 4.29
41 | COCCSc1ccccc1C(=O)N1CCOCC1 | 4.53
42 | Cn1c(=O)cc(SCC(=O)N2CCCC2)c2ccc(Cl)cc21 | -12.7
43 | COc1ccc(-c2csc3nc(C(C)(C)C)oc(=O)c23)cc1OC | 7.43
44 | CCOC(=O)C1=C(C)NC(c2cccs2)C(=O)N1 (stereo not shown) | 10.5

Row | Compound | hERG current change (%, negative = inhibition) at 10uM [%]
45 | CCc1ccc(N(CC(=O)NCc2ccc(F)cc2)C(=O)c2csnn2)cc1 | -33.1
46 | CCn1c(N2CCN(S(=O)(=O)c3ccccc3)CC2)nc2ccccc21 | -43.5
47 | Cc1ccc(C(=O)/C=C/Nc2ccc(S(=O)(=O)Nc3cc(C)nc(C)n3)cc2)cc1 | 28.1
48 | Cc1cnc(C(=O)OCC(=O)c2ccc(Cl)cc2)cn1 | -8.46
49 | Cl.N=c1n(Cc2ccccc2)c2ccccc2n1CC(O)COc1ccccc1 (stereo not shown) | -74.6
50 | COc1cc(CN2CCN(CC#Cc3ccccc3)CC2CCO)cc(OC)c1 (stereo not shown) | -1.09
51 | Cc1ccc(NC(=O)c2ccc(NC(=O)C3CCCCC3C(=O)O)cc2)cc1 (stereo not shown) | 14.4
52 | CCC(=O)c1c[nH]c(C(=O)N2CCN(c3ccccc3)CC2)c1 | -30.2
53 | O=C1CCCN1CCCNC(=S)Nc1ccc(Nc2ccccc2)cc1 | -10.9
54 | COc1ccccc1N(C)S(=O)(=O)c1ccc(Cl)c(C(=O)NNC(=O)c2ccccc2O)c1 | -5.92
55 | Nc1cc(Oc2ccc(F)cc2F)cc([N+](=O)[O-])c1 | 15.4
56 | Cc1nn(Cc2c(F)c(F)c(F)c(F)c2F)c(C)c1NC(=O)c1c([N+](=O)[O-])cnn1C | 3.79
57 | Cc1ccc(NC(=O)C2CSC3(C)CCC(=O)N23)cc1S(=O)(=O)N1CCCCCC1 (stereo not shown) | -55.4
58 | CNS(=O)(=O)c1ccc(NC(=O)c2cnn3c(C(F)F)cc(-c4ccccc4)nc23)cc1 | 21.5
59 | O=C(O)c1ccc(/C=C2\SC(=S)N(Nc3ccccc3)C2=O)cc1 | 0.467
60 | CC(CNC(=O)c1cncc(O)c1)NC(=O)c1cncc(O)c1.Cl (stereo not shown) | 5.05
61 | COc1cc(C)nc(N2CCCC(C(=O)NCC(C)C)C2)n1 (stereo not shown) | 5.28
62 | COc1ccccc1NC(=O)CCC(=O)c1ccc(-c2ccccc2)cc1 | 28.2
63 | O=C(Cc1ccccc1)NCC(=O)OCC(=O)c1ccc(F)cc1 | -2.04
64 | C#CCNC(=O)C1=C[C@@H](c2csc3ccccc23)[C@H](CCCO)[C@@H](OCC)O1 | -21.7
65 | CC(C)(C)c1ccc(C(=O)NNC(=O)C2CCCCC2)cc1 | 13
66 | COc1ccc(NC(=S)N(CCc2c(C)[nH]c3ccccc23)Cc2cccnc2)cc1 | -32.8

Row | Compound | hERG current change (%, negative = inhibition) at 10uM [%]
67 | CC(=O)OCc1nc2sc3c(c2c(=O)[nH]1)CCCC3 | 3.06
68 | C=CCN1C2CCCC1CC(NC(=O)Nc1cc(C)cc(C)c1)C2 (stereo not shown) | -51.8
69 | CCc1cc(/C(Cc2ccc3ccccc3n2)=N\O)c(O)cc1O | -3.58
70 | COC(=O)[C@H]1[C@H]2C[C@@H]3c4[nH]c5cc(OC)ccc5c4CCN3C[C@H]2C[C@@H](OC(=O)/C=C/c2cc(OC)c(OC)c(OC)c2)[C@@H]1OC | -2.22
71 | COc1ccc(CCNCC(=O)Nc2ccccc2C(F)(F)F)cc1.O=C(O)C(=O)O | 1.63
72 | COc1cc2c(cc1OC)CN(C(=O)c1ccc(OC)c([N+](=O)[O-])c1)CC2 | 4.43
73 | COc1ccc(CCNc2cc(=O)[nH]c(N)n2)cc1 | 15.6
74 | COc1ccc(-c2nnc(SCC(=O)c3ccc4c(c3)OCCO4)o2)cc1 | -5.71
75 | Cc1ccc(S(=O)(=O)N2[C@@H](c3ccc(Cl)cc3)C(C(=O)O)=CC[C@H]2c2ccc(C(C)C)cc2)cc1 | -18.2
76 | COc1ccc(C2NC(=O)NC(C)=C2C(=O)Nc2cccc(C)c2C)cc1 (stereo not shown) | -7.54
77 | O=C(Cc1ccc(Cl)cc1)NN1C(=O)c2ccccc2C1=O | 4.56
78 | Cc1cccc(NC(=O)Cn2c(=O)oc3ccccc32)c1C | 14.8
79 | Cn1cc(CN(Cc2ccccn2)C[C@@H]2CCC(=O)N2)c(-c2ccccc2F)n1 | 6.03
80 | CC(C)(C)N1C(=O)c2ccc(C(=O)Nc3ccc(C(=O)O)cc3)cc2C1=O | 14.5
81 | COc1ccc(C(CC(=O)N2CCCC(C)C2)c2c(OC)cc(OC)c3c(-c4ccccc4)cc(=O)oc23)cc1 (stereo not shown) | 8.57
82 | COc1ccc(-c2cc3n(n2)CCc2nc4ccccc4n2-3)cc1 | 4.54
83 | CC(C)Cn1c(N)c(C(=O)COC(=O)c2ccncc2)c(=O)n(C)c1=O | -0.546
84 | Cc1nc(SCC(=O)Nc2c(C)n(C)n(-c3ccccc3)c2=O)nc(C)c1C | 3.09
85 | COc1ccc(C(=O)Nc2ccc3c(c2)nc(CN2CCN(C(C)=O)CC2)n3C)cc1 | -0.777
